Reference: article PMC12820563, “FoxP3 forms a head-to-head dimer in vivo and stabilizes its multimerization on adjacent microsatellites”
The list shows a part of the results.

What follows are sequences tested against T1, MBP-FoxP1dN (Mus musculus, UniProt P58462 326-579) (assay: PD-seq (MBP pull-down with sequencing); 20 mM Tris-HCl pH 7.5, 100 mM NaCl, 1.5 mM MgCl2, 0.4 uM protein, 0.1 uM dsDNA library, 30 min, room temperature, amylose pull-down; high values mean tight binding). Details: protein: recombinant; tags: His6-MBP; chain copies: 2; dsDNA, one strand shown.
T1 sequence: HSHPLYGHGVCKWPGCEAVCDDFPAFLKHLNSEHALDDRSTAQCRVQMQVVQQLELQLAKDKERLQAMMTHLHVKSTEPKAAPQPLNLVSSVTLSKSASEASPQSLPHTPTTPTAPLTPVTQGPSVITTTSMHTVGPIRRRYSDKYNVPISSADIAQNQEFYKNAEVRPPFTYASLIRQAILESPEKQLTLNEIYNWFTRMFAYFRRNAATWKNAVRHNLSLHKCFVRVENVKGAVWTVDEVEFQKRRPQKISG
How it was run: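 E. coli-expressed mouse FoxP3 or FoxP1 fragment, N-terminus removed and tagged with His6-MBP, was used at 0.4 µM against 0.1 µM of a Klenow-filled degenerate double-stranded DNA library. After 30 min at room temperature in Tris pH 7.5 buffer with NaCl and MgCl2, complexes were pulled down on amylose resin and washed three times. Binding is pull-down over input reads-per-million enrichment from pooled replicates of the proteinase K-released, PCR-barcoded, Illumina-sequenced DNA.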

Row | Sequence | binding signal
1 | GATGATTGTTCTCCCAGCTGATGAATTGCGATCATCGAGTAAACAAATTTTCCTAATCTTTCTGTTCAAGCGCCATCTAC | 1.15 RPM ratio (pull-down/input)
2 | GATGATTGTTCTCCCAGCTGATGAATTTTGCATTTCGAGTAAACAAATTTTCCTAATCTTTCTGTTCAAGCGCCATCTAC | 1.29 RPM ratio (pull-down/input)
3 | GATGATTGTTCTCCCAGCTGATGAATTGGTACGGTCGAGTAAACAAATTTTCCTAATCTTTCTGTTCAAGCGCCATCTAC | 0.835 RPM ratio (pull-down/input)
4 | GATGATTGTTCTCCCAGCTGATGAATTGACGTAGTCGAGTAAACAAATTTTCCTAATCTTTCTGTTCAAGCGCCATCTAC | 1.08 RPM ratio (pull-down/input)
5 | GATGATTGTTCTCCCAGCTGATGAATTGTTTCGGTCGAGTAAACAAATTTTCCTAATCTTTCTGTTCAAGCGCCATCTAC | 1.18 RPM ratio (pull-down/input)
6 | GATGATTGTTCTCCCAGCTGATGAATTAAGTGTTTCGAGTAAACAAATTTTCCTAATCTTTCTGTTCAAGCGCCATCTAC | 1.09 RPM ratio (pull-down/input)
7 | GATGATTGTTCTCCCAGCTGATGAATTAGCAATCTCGAGTAAACAAATTTTCCTAATCTTTCTGTTCAAGCGCCATCTAC | 0.915 RPM ratio (pull-down/input)
8 | GATGATTGTTCTCCCAGCTGATGAATTCCGCATCTCGAGTAAACAAATTTTCCTAATCTTTCTGTTCAAGCGCCATCTAC | 1.17 RPM ratio (pull-down/input)
9 | GATGATTGTTCTCCCAGCTGATGAATTTAATACGTCGAGTAAACAAATTTTCCTAATCTTTCTGTTCAAGCGCCATCTAC | 0.958 RPM ratio (pull-down/input)
10 | GATGATTGTTCTCCCAGCTGATGAATTGTGTCATTCGAGTAAACAAATTTTCCTAATCTTTCTGTTCAAGCGCCATCTAC | 1.29 RPM ratio (pull-down/input)
11 | GATGATTGTTCTCCCAGCTGATGAATTAAATATTTCGAGTAAACAAATTTTCCTAATCTTTCTGTTCAAGCGCCATCTAC | 1.14 RPM ratio (pull-down/input)
12 | GATGATTGTTCTCCCAGCTGATGAATTAGCATTCTCGAGTAAACAAATTTTCCTAATCTTTCTGTTCAAGCGCCATCTAC | 1.16 RPM ratio (pull-down/input)
13 | GATGATTGTTCTCCCAGCTGATGAATTTAATTATTCGAGTAAACAAATTTTCCTAATCTTTCTGTTCAAGCGCCATCTAC | 1.16 RPM ratio (pull-down/input)
14 | GATGATTGTTCTCCCAGCTGATGAATTAACCACCTCGAGTAAACAAATTTTCCTAATCTTTCTGTTCAAGCGCCATCTAC | 0.882 RPM ratio (pull-down/input)
15 | GATGATTGTTCTCCCAGCTGATGAATTCATTTTTTCGAGTAAACAAATTTTCCTAATCTTTCTGTTCAAGCGCCATCTAC | 0.907 RPM ratio (pull-down/input)
16 | GATGATTGTTCTCCCAGCTGATGAATTTGCAAACTCGAGTAAACAAATTTTCCTAATCTTTCTGTTCAAGCGCCATCTAC | 1.06 RPM ratio (pull-down/input)

Row | Sequence | binding signal
17 | GATGATTGTTCTCCCAGCTGATGAATTGGTCCACTCGAGTAAACAAATTTTCCTAATCTTTCTGTTCAAGCGCCATCTAC | 0.898 RPM ratio (pull-down/input)
18 | GATGATTGTTCTCCCAGCTGATGAATTGGATCGATCGAGTAAACAAATTTTCCTAATCTTTCTGTTCAAGCGCCATCTAC | 0.817 RPM ratio (pull-down/input)
19 | GATGATTGTTCTCCCAGCTGATGAATTGAACTATTCGAGTAAACAAATTTTCCTAATCTTTCTGTTCAAGCGCCATCTAC | 0.897 RPM ratio (pull-down/input)
20 | GATGATTGTTCTCCCAGCTGATGAATTCACATTATCGAGTAAACAAATTTTCCTAATCTTTCTGTTCAAGCGCCATCTAC | 1.03 RPM ratio (pull-down/input)
21 | GATGATTGTTCTCCCAGCTGATGAATTGACCCCTTCGAGTAAACAAATTTTCCTAATCTTTCTGTTCAAGCGCCATCTAC | 0.88 RPM ratio (pull-down/input)
22 | GATGATTGTTCTCCCAGCTGATGAATTACGCTGGTCGAGTAAACAAATTTTCCTAATCTTTCTGTTCAAGCGCCATCTAC | 0.942 RPM ratio (pull-down/input)
23 | GATGATTGTTCTCCCAGCTGATGAATTGAGTTACTCGAGTAAACAAATTTTCCTAATCTTTCTGTTCAAGCGCCATCTAC | 0.958 RPM ratio (pull-down/input)
24 | GATGATTGTTCTCCCAGCTGATGAATTCCCGTACTCGAGTAAACAAATTTTCCTAATCTTTCTGTTCAAGCGCCATCTAC | 0.842 RPM ratio (pull-down/input)
25 | GATGATTGTTCTCCCAGCTGATGAATTGGGACTATCGAGTAAACAAATTTTCCTAATCTTTCTGTTCAAGCGCCATCTAC | 0.879 RPM ratio (pull-down/input)
26 | GATGATTGTTCTCCCAGCTGATGAATTAAAGCGCTCGAGTAAACAAATTTTCCTAATCTTTCTGTTCAAGCGCCATCTAC | 0.953 RPM ratio (pull-down/input)
27 | GATGATTGTTCTCCCAGCTGATGAATTATTCCATTCGAGTAAACAAATTTTCCTAATCTTTCTGTTCAAGCGCCATCTAC | 1.1 RPM ratio (pull-down/input)
28 | GATGATTGTTCTCCCAGCTGATGAATTTATTGCTTCGAGTAAACAAATTTTCCTAATCTTTCTGTTCAAGCGCCATCTAC | 1.21 RPM ratio (pull-down/input)
29 | GATGATTGTTCTCCCAGCTGATGAATTTCTGCCCTCGAGTAAACAAATTTTCCTAATCTTTCTGTTCAAGCGCCATCTAC | 0.838 RPM ratio (pull-down/input)
30 | GATGATTGTTCTCCCAGCTGATGAATTTAACGAGTCGAGTAAACAAATTTTCCTAATCTTTCTGTTCAAGCGCCATCTAC | 0.819 RPM ratio (pull-down/input)
31 | GATGATTGTTCTCCCAGCTGATGAATTAGGCCTTTCGAGTAAACAAATTTTCCTAATCTTTCTGTTCAAGCGCCATCTAC | 0.852 RPM ratio (pull-down/input)
